Measurements published in the supplement of paper PMC8728848.
Some of the results follow.

Legend:
Assay in all cases: glycan array binding signal (z-score within array); higher = stronger binding
Settings in all cases: glycan notation: IUPAC condensed, linker removed; mutation: R186I
[1] = biological target: Fuc(a1-3)[Gal3S(b1-4)]GlcNAc
Procedure, shortened: (§1)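 Glycan array data were curated from 3228 arrays in the Consortium for Functional Glycomics database and kept only where the protein sequence was available. Glycan names were converted to IUPAC-condensed notation, and columns mapping to the same glycan were averaged. The binding signal is a within-array Z-score, averaged across arrays of the same protein sequence at different concentrations or buffers and across linkers. Negative Z-scores can be read as non-binding.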

[2] = biological target: Fuc(a1-3)[Gal3S(b1-4)]GlcNAc6S
Procedure, shortened: as §1

[3] = biological target: Fuc(a1-3)[GalNAc(b1-4)]GlcNAc
Procedure, shortened: as §1

[4] = biological target: Fuc(a1-4)GlcNAc
Procedure, shortened: as §1

[5] = biological target: Fuc(b1-3)GlcNAc
Procedure, shortened: as §1

[6] = biological target: Gal(a1-2)Gal
Procedure, shortened: as §1

[7] = biological target: Gal(a1-3)Gal
Procedure, shortened: as §1

[8] = biological target: Gal(a1-3)Gal(b1-3)GlcNAc
Procedure, shortened: as §1

[9] = biological target: Gal(a1-3)Gal(b1-3)GlcNAc(b1-2)Man(a1-3)[Gal(a1-3)Gal(b1-3)GlcNAc(b1-2)Man(a1-6)]Man(b1-4)GlcNAc(b1-4)GlcNAc
Procedure, shortened: as §1

[10] = biological target: Gal(a1-3)Gal(b1-3)[Fuc(a1-4)]GlcNAc(b1-2)Man(a1-3)[Gal(a1-3)Gal(b1-3)[Fuc(a1-4)]GlcNAc(b1-2)Man(a1-6)]Man(b1-4)GlcNAc(b1-4)GlcNAc
Procedure, shortened: as §1

[11] = biological target: Gal(a1-3)Gal(b1-4)Glc
Procedure, shortened: as §1

[12] = biological target: Gal(a1-3)Gal(b1-4)GlcNAc
Procedure, shortened: as §1

[13] = biological target: Gal(a1-3)Gal(b1-4)GlcNAc(b1-3)GalNAc
Procedure, shortened: as §1

[14] = biological target: Gal(a1-3)Gal(b1-4)[Fuc(a1-3)]GlcNAc
Procedure, shortened: as §1

[15] = biological target: Gal(a1-3)Gal(b1-4)[Fuc(a1-3)]GlcNAc(b1-2)Man(a1-3)[Gal(a1-3)Gal(b1-4)[Fuc(a1-3)]GlcNAc(b1-2)Man(a1-6)]Man(b1-4)GlcNAc(b1-4)GlcNAc
Procedure, shortened: as §1

[16] = biological target: Gal(a1-3)GalNAc
Procedure, shortened: as §1

[17] = biological target: Gal(a1-3)[Gal(a1-4)]Gal(b1-4)GlcNAc
Procedure, shortened: as §1

[18] = biological target: Gal(a1-4)Gal(b1-3)GlcNAc(b1-2)Man(a1-3)[Gal(a1-4)Gal(b1-3)GlcNAc(b1-2)Man(a1-6)]Man(b1-4)GlcNAc(b1-4)GlcNAc
Procedure, shortened: as §1

[19] = biological target: Gal(a1-4)Gal(b1-4)Glc
Procedure, shortened: as §1

[20] = biological target: Gal(a1-4)Gal(b1-4)GlcNAc
Procedure, shortened: as §1

[21] = biological target: Gal(a1-4)Gal(b1-4)GlcNAc(b1-2)Man(a1-3)[Gal(a1-4)Gal(b1-4)GlcNAc(b1-2)Man(a1-6)]Man(b1-4)GlcNAc(b1-4)GlcNAc
Procedure, shortened: as §1

[22] = biological target: Gal(a1-4)Gal(b1-4)GlcNAc(b1-3)Gal(b1-4)Glc
Procedure, shortened: as §1

[23] = biological target: Gal(a1-4)GlcNAc
Procedure, shortened: as §1

[24] = biological target: Gal(a1-6)Glc
Procedure, shortened: as §1

[25] = biological target: Gal(b1-2)Gal
Procedure, shortened: as §1

[26] = biological target: Gal(b1-3)Gal
Procedure, shortened: as §1

[27] = biological target: Gal(b1-3)Gal(b1-4)GlcNAc
Procedure, shortened: as §1

[28] = biological target: Gal(b1-3)Gal(b1-4)GlcNAc(b1-2)Man(a1-3)[Gal(b1-3)Gal(b1-4)GlcNAc(b1-2)Man(a1-6)]Man(b1-4)GlcNAc(b1-4)GlcNAc
Procedure, shortened: as §1

[29] = biological target: Gal(b1-3)GalNAc
Procedure, shortened: as §1

[30] = biological target: Gal(b1-3)GalNAc(a1-3)[Fuc(a1-2)]Gal(b1-4)Glc
Procedure, shortened: as §1

[31] = biological target: Gal(b1-3)GalNAc(a1-3)[Fuc(a1-2)]Gal(b1-4)GlcNAc
Procedure, shortened: as §1

[32] = biological target: Gal(b1-3)GalNAc(b1-3)Gal(a1-4)Gal(b1-4)Glc
Procedure, shortened: as §1

[33] = biological target: Gal(b1-3)GalNAc(b1-4)Gal(b1-4)Glc
Procedure, shortened: as §1

[34] = biological target: Gal(b1-3)GalNAc(b1-4)[Neu5Ac(a2-3)]Gal(b1-4)Glc
Procedure, shortened: as §1

[35] = biological target: Gal(b1-3)GlcNAc
Procedure, shortened: as §1

[36] = biological target: Gal(b1-3)GlcNAc(a1-6)Gal(b1-4)GlcNAc
Procedure, shortened: as §1

[37] = biological target: Gal(b1-3)GlcNAc(b1-2)Man(a1-3)[Gal(b1-3)GlcNAc(b1-2)Man(a1-6)]Man(b1-4)GlcNAc(b1-4)GlcNAc
Procedure, shortened: as §1

[38] = biological target: Gal(b1-3)GlcNAc(b1-2)Man(a1-3)[Gal(b1-3)GlcNAc(b1-2)Man(a1-6)]Man(b1-4)GlcNAc(b1-4)[Fuc(a1-6)]GlcNAc
Procedure, shortened: as §1

[39] = biological target: Gal(b1-3)GlcNAc(b1-3)Gal(b1-3)GlcNAc
Procedure, shortened: as §1

[40] = biological target: Gal(b1-3)GlcNAc(b1-3)Gal(b1-4)Glc
Procedure, shortened: as §1

[41] = biological target: Gal(b1-3)GlcNAc(b1-3)Gal(b1-4)GlcNAc
Procedure, shortened: as §1

[42] = biological target: Gal(b1-3)GlcNAc(b1-3)Gal(b1-4)GlcNAc(b1-6)[Gal(b1-3)GlcNAc(b1-3)]Gal(b1-4)Glc
Procedure, shortened: as §1

[43] = biological target: Gal(b1-3)GlcNAc(b1-3)Gal(b1-4)[Fuc(a1-3)]GlcNAc(b1-6)[Gal(b1-3)GlcNAc(b1-3)]Gal(b1-4)Glc
Procedure, shortened: as §1

[44] = biological target: Gal(b1-3)GlcNAc(b1-3)GalNAc
Procedure, shortened: as §1

[45] = biological target: Gal(b1-3)GlcNAc(b1-6)Gal(b1-4)GlcNAc
Procedure, shortened: as §1

[46] = biological target: Gal(b1-3)[Fuc(a1-4)]GlcNAc
Procedure, shortened: as §1

[47] = biological target: Gal(b1-3)[Fuc(a1-4)]GlcNAc(b1-2)Man(a1-3)[Gal(b1-3)[Fuc(a1-4)]GlcNAc(b1-2)Man(a1-6)]Man(b1-4)GlcNAc(b1-4)GlcNAc
Procedure, shortened: as §1

[48] = biological target: Gal(b1-3)[Fuc(a1-4)]GlcNAc(b1-2)Man(a1-3)[Gal(b1-3)[Fuc(a1-4)]GlcNAc(b1-2)Man(a1-6)]Man(b1-4)GlcNAc(b1-4)[Fuc(a1-6)]GlcNAc
Procedure, shortened: as §1

[49] = biological target: Gal(b1-3)[Fuc(a1-4)]GlcNAc(b1-3)Gal(b1-3)[Fuc(a1-4)]GlcNAc
Procedure, shortened: as §1

[50] = biological target: Gal(b1-3)[Fuc(a1-4)]GlcNAc(b1-3)Gal(b1-4)GlcNAc
Procedure, shortened: as §1

[51] = biological target: Gal(b1-3)[Fuc(a1-4)]GlcNAc(b1-3)Gal(b1-4)[Fuc(a1-3)]GlcNAc
Procedure, shortened: as §1

[52] = biological target: Gal(b1-3)[GlcNAc(b1-6)]GalNAc
Procedure, shortened: as §1

[53] = biological target: Gal(b1-3)[Neu5Ac(a2-6)]GalNAc
Procedure, shortened: as §1

[54] = biological target: Gal(b1-3)[Neu5Ac(a2-6)]GlcNAc(b1-6)Gal(b1-4)Glc
Procedure, shortened: as §1

[55] = biological target: Gal(b1-3)[Neu5Ac(b2-6)]GalNAc
Procedure, shortened: as §1

[56] = biological target: Gal(b1-4)GalNAc(a1-3)[Fuc(a1-2)]Gal(b1-4)GlcNAc
Procedure, shortened: as §1

[57] = biological target: Gal(b1-4)GalNAc(b1-3)[Fuc(a1-2)]Gal(b1-4)GlcNAc
Procedure, shortened: as §1

[58] = biological target: Gal(b1-4)Glc
Procedure, shortened: as §1

[59] = biological target: Gal(b1-4)Glc6S
Procedure, shortened: as §1

[60] = biological target: Gal(b1-4)GlcNAc
Procedure, shortened: as §1

B1: Gal 3 (Homo sapiens), P17931 (protein)
chain: MADNFSLHDALSGSGNPNPQGWPGAWGNQPAGAGGYPGASYPGAYPGQAPPGAYPGQAPPGAYHGAPGAYPGAPAPGVYPGPPSGPGAYPSSGQPSAPGAYPATGPYGAPAGPLIVPYNLPLPGGVVPRMLITILGTVKPNANILDFQRGNDVAFHFNPRFNENNRRVIVCNTKLDNNWGREEIQSVFPFESGKPFKIQVLVEPDHFKVAVNDAHLLQYNHRVKKLNEISKLGISGDIDLTSASYTMI
glycan array binding signal (z-score) [1]: -0.147 | glycan array binding signal (z-score) [2]: -0.154 | glycan array binding signal (z-score) [3]: -0.127 | glycan array binding signal (z-score) [4]: -0.177 | glycan array binding signal (z-score) [5]: -0.096 | glycan array binding signal (z-score) [6]: -0.175 | glycan array binding signal (z-score) [7]: -0.171 | glycan array binding signal (z-score) [8]: -0.172 | glycan array binding signal (z-score) [9]: -0.169 | glycan array binding signal (z-score) [10]: -0.175 | glycan array binding signal (z-score) [11]: -0.104 | glycan array binding signal (z-score) [12]: -0.191 | glycan array binding signal (z-score) [13]: -0.022 | glycan array binding signal (z-score) [14]: -0.188 | glycan array binding signal (z-score) [15]: -0.192 | glycan array binding signal (z-score) [16]: -0.161 | glycan array binding signal (z-score) [17]: -0.182 | glycan array binding signal (z-score) [18]: -0.147 | glycan array binding signal (z-score) [19]: -0.173 | glycan array binding signal (z-score) [20]: -0.127 | glycan array binding signal (z-score) [21]: -0.177 | glycan array binding signal (z-score) [22]: -0.159 | glycan array binding signal (z-score) [23]: -0.161 | glycan array binding signal (z-score) [24]: -0.185 | glycan array binding signal (z-score) [25]: -0.111 | glycan array binding signal (z-score) [26]: -0.177 | glycan array binding signal (z-score) [27]: -0.192 | glycan array binding signal (z-score) [28]: 11.1 | glycan array binding signal (z-score) [29]: -0.143 | glycan array binding signal (z-score) [30]: -0.162 | glycan array binding signal (z-score) [31]: -0.146 | glycan array binding signal (z-score) [32]: -0.141 | glycan array binding signal (z-score) [33]: -0.075 | glycan array binding signal (z-score) [34]: -0.192 | glycan array binding signal (z-score) [35]: -0.177 | glycan array binding signal (z-score) [36]: -0.13 | glycan array binding signal (z-score) [37]: -0.191 | glycan array binding signal (z-score) [38]: -0.104 | glycan array binding signal (z-score) [39]: -0.19 | glycan array binding signal (z-score) [40]: 0.072 | glycan array binding signal (z-score) [41]: -0.166 | glycan array binding signal (z-score) [42]: -0.189 | glycan array binding signal (z-score) [43]: -0.002 | glycan array binding signal (z-score) [44]: -0.14 | glycan array binding signal (z-score) [45]: -0.173 | glycan array binding signal (z-score) [46]: -0.174 | glycan array binding signal (z-score) [47]: -0.173 | glycan array binding signal (z-score) [48]: -0.145 | glycan array binding signal (z-score) [49]: -0.132 | glycan array binding signal (z-score) [50]: -0.167 | glycan array binding signal (z-score) [51]: -0.184 | glycan array binding signal (z-score) [52]: -0.128 | glycan array binding signal (z-score) [53]: -0.186 | glycan array binding signal (z-score) [54]: 0.101 | glycan array binding signal (z-score) [55]: -0.066 | glycan array binding signal (z-score) [56]: -0.15 | glycan array binding signal (z-score) [57]: -0.185 | glycan array binding signal (z-score) [58]: -0.176 | glycan array binding signal (z-score) [59]: -0.082 | glycan array binding signal (z-score) [60]: -0.142
